Tests used:
[1] = system: any oligonucleotide (non-G-quadruplex control sequence) with its complementary strand; assay: Test of selectivity No. 1 (alpha screen): inhibition of pairing of any oligonucleotide with its complementary strand, luminescence; assay type: binding; conditions: control oligonucleotide pairing versus G4 oligonucleotide pairing
Description: The test used is the same as that described above. Only the oligonucleotides are different, the telomeric strand being replaced by an oligonucleotide having the following sequence: G-GTT-TAA-AAT-AAT-TGA-GGC-TTA-CCG-TTA-CCG-TTA-CGG biotinylated at the 5′ end. The complementary strand has the sequence: 5′-GGT-TTA-AAA-AAT-TTG-CGG-TAA-CGG-TAA-CGG-TAA-GCC-T labeled with digoxigenin at the 5′ end. If the test product has affinity for the biotinylated DNA sequence, the pairing of the complementary strand will be prevented and the signal obtained will be minimal. In the absence of product or if the latter has no affinity for this DNA, the pairing will occur and the signal will be maximum.

[2] = system: G-quadruplex oligonucleotide GGGTTAGGGTTAGGGTTAGGG (3.5 repeats of the human telomeric unit), FAM+DABCYL; assay: Test of affinity No. 3: stabilization of the G-quadruplexes, fluorescence Tm; assay type: binding; conditions: test product 1 μM, oligonucleotide 0.2 μM, 0.1 M LiCl, 10 mM cacodylate pH 7.6; reference Tm 44° C.
Description: Test of affinity No. 3: Measurement of the stabilization of the G-guadruplexes Tm, expressed in ° C., by a method using the formation of a complex with fluorescein of which the experimental protocol is described below.
All the oligonucleotides, modified or otherwise, were synthesized by Eurogentec S A, Seraing, Belgium. The oligonucleotide FAM+DABCYL has the catalog reference OL-0371-0802. It has the sequence: […] corresponding to 3.5 repeats of the human telomeric unit (strand rich in G). The fluorescein is attached to the 5′ end, the DABCYL to the 3′ end, by the chemical arms described by Eurogentec. An oligonucleotide FAM+TAMRA may also be used. The concentration of the samples is checked by spectrophotometry, by recording the absorbance spectrum between 220 and 700 nm and using the molar extinction coefficient provided by the supplier. […]
All the measurements of fluorescence were carried out on a Spex Fluorolog DM1B or Fluoromax 3 apparatus, using an excitation line width of 1.8 nm and an emission line width of 4.5 or 5 nm. […] The oligonucleotide alone was analyzed at 20, 30, 40, 50, 60, 70 and 80° C. The emission spectra are recorded using an excitation wavelength of 470 nm. The excitation spectra are recorded using either 515 or 588 nm as emission wavelength. […] This juxtaposition causes an already-described phenomenon of extinction of fluorescence which is used for “Molecular Beacons”. […]

[3] = system: human telomerase (extract of A549 cells), oligonucleotide TSG4; assay: Antitelomerase activity by the TRAP-G4 assay; assay type: biochemical; conditions: formation of the TSG4-CXext band; read-out: Inhibition of telomerase IC50 (IC50 TRAP-G4)
Protocol: The extract is stored at -80° C.

[4] = system: oligonucleotide capable of forming a G-quadruplex structure (G-rich strand, repetitive units of human telomeric DNA); assay: Test of affinity No. 1 (alpha screen): inhibition of pairing of a G-quadruplex-forming oligonucleotide with its complementary strand, luminescence; assay type: binding; conditions: 50 mM TRIS-HCl pH 7.4, 100 mM KCl, 0.1% BSA; telomeric strand vs complementary strand; read-out: Affinity/selectivity G4 Test 1 (alpha screen) Affinity IC50
Description: The principle of this test uses the activation of “acceptor” beads by an oxygen singlet emitted by “donor” beads excited by laser when the “acceptor” and “donor” beads are in proximity. This test was developed by Packard Bioscience under the name Amplified Luminescent Proximity Homogeneous Assay or ALPHA screen.
The “donor” beads are conjugated with streptavidin and the acceptor beads with an anti-digoxigenin antibody (catalog reference 6760604). A DNA strand, in this case the telomeric strand, is coupled at its 5′ end to biotin so as to be able to bind to the “donor” beads, while the complementary strand is coupled to digoxigenin so as to be able to bind to the “acceptor” beads. During the pairing of the telomeric strand with its complementary strand, the beads are placed in proximity and a luminescence signal is then emitted at a wavelength of 520-620 nm.
The oligonucleotides used in the experiments were synthesized by Perkin Elmer Life Sciences (Finland). […] The complementary strand has the sequence GGT-TTA-AAA-AAT-TTG-CCC-TAA-CCC-TAA-CCC-TAA-CCC-T. The biotin or the digoxigenin are added to the 5′ end of the oligonucleotides.
The experiments are carried out in 50 mM TRIS-HCl buffer pH 7.4 containing 100 mM KCl and 0.1% BSA. […]
The experiments are carried out in 96-well plates (½ wells). […] The plates are incubated at room temperature for 2 hours before reading. […]

In the case of `C[n+]1cc(NC(=O)c2cccc(C(=O)Nc3cc4ccccc4[n+](C)c3)n2)cc2ccccc21.[I-].[I-]` [Example 11, bis[(1-methylquinolinio-3-yl)amido]-2,6-pyridinedicarboxylic acid diiodide], the “Affinity/selectivity G4 Test 1 (alpha screen) Selectivity factor” value [1] is reported as greater than 60, the “Affinity G4 Test 3 Delta Tm” value [2] is reported as 21.8 °C and the IC50 [3] is reported as 600 nM. The IC50 [4] was 50 nM.
